Measured values taken from the supplement of paper PMC3334620.
Over roughly 33,000 sequences, “E-score (-0.5 to 0.5)” has its median near -0.04; the highest 2% begin near 0.36. The list shows a part of the results.

What follows are sequences tested against T1, Hmlalpha2 (UniProt P0CY09) (assay: PBM E-score (8-mer binding enrichment) (E-score (-0.5 to 0.5)); higher = stronger / more preferred TF binding; most listed sequences are background and not binding sites). Conditions: protein concentration: 200 nM; construct: GST-full length.
T1 sequence: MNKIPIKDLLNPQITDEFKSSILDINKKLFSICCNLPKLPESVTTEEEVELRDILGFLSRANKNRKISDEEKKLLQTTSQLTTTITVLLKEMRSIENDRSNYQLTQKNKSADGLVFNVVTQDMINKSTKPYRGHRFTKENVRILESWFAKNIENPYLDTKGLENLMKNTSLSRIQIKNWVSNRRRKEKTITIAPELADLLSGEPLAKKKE
How it was run: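 E-scores (a modified Wilcoxon-Mann-Whitney statistic) were assigned by the Universal PBM Analysis Suite to every ungapped eight-base word pooled with its reverse complement. The input came from universal all-10-mer Agilent arrays made double-stranded by primer extension and probed with GST-tagged yeast transcription factors at about 100-200 nM. Fluorescent anti-GST detected bound protein, and masliner normalised the scans.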

Sequence	PBM E-score
CACTTTTA	0.117
CGCCTCAA	-0.0382
AATGCGTG	0.197
AATCCGGA	-0.0053
CGTGTGTA	0.413
ATAACTAT	0.09
GGCATGAC	-0.186
TACTAATA	0.139
CGGTGACG	-0.0635
GCGCGCAC	0.0127
CTCATCTC	-0.16
CCAGCGGC	-0.113
CTAGTAGC	-0.0933
CCTTAGCG	-0.153
GCCCAGAA	-0.237
AAGGTCTA	-0.174
TATTTGAA	0.127
CCAACACA	0.248
ATTGAAGC	0.129
AATCGCAT	0.126
CTTAGACA	0.0152
ACTCATAC	-0.00755

Sequence	PBM E-score
CCTGCTCA	0.127
CCGCTGAA	-0.0962
ACTACGAG	0.0505
GCCTTGAC	-0.109
AAAAAGGT	0.155
AAGTAACA	0.245
AGTTATTC	0.0578
GGGGTACC	-0.277
CTGGGGAC	-0.186
ACTTGGTA	0.196
ATACAGTG	0.0218
CCATACGC	-0.115
AGGGTAGG	-0.0165
AGTGGTTA	0.036
AAAGACTG	-0.0841
GTCGTGCA	0.0844
AAGCCTTA	-0.194
GCGGCGAA	-0.225
ATTGTAGA	0.279
TAGTAGAA	0.0946
GGGCTTAA	-0.171
CCTCCACC	-0.332

Sequence	PBM E-score
CAACTGGC	-0.203
GCTGACCC	-0.195
GAGATCGA	-0.094
ACGATCAA	0.101
ACGGAGCA	-0.0861
ACTTTACT	0.109
AAATCGCG	0.0275
GGTAGAGA	-0.155
CAATACCA	0.159
TCTACTAA	0.153
TGCGCGAA	0.112
TCCATCGA	-0.0565
TCGGAAGA	-0.11
ATGGGGTA	-0.0333
GATTCGAC	-0.00316
ATGGATCC	-0.226
GGGTTGTA	0.226
GTACCAAA	0.0737
CGAGGACG	-0.334
CATATGCG	0.0689
AACCTCAA	0.0617
GGCTCTTA	-0.184

Sequence	PBM E-score
CGTATTTC	0.223
ATTTACCG	0.152
GTCCGGTA	-0.101
CTTAGGCA	-0.0256
ACCGTCAC	-0.185
AAGAGGTA	-0.0482
GACATCTC	-0.152
AACGCTTA	-0.018
CGTTGTAG	0.242
TATGCGAA	-0.0422
AGGTATCG	-0.17
CGCTATTA	0.2
CTGGGGTC	-0.17
CAAAGGAA	0.132
AAGTCTAT	-0.0707
CATTTGGG	-0.125
CGCACGTC	-0.00425
GCAATTCA	-0.0436
GAGCCGTA	0.0752
CACCAATA	0.0563
AGACTAAT	-0.0364
ACCAGATA	0.163

Sequence	PBM E-score
AGCTGGCG	-0.106
CCCCACTC	-0.323
ACCTGCTC	0.00131
CATGTAAC	0.456
TAGAGTGA	-0.114
ACGCAATC	0.0463
ACGTTCCA	-0.0324
AACTAGGT	0.11
CCTGGACG	-0.23
AGCAATTA	0.0202
GGTGAACA	0.098
AACTGAGG	-0.0109
AATGACTG	-0.0403
ATTCCGAC	-0.00616
AGGTACAA	0.21
CGAAGCCA	-0.152
GCGCCTTA	0.0684
AACCACAA	-0.0241
AAATCTCT	0.067
GTAACTAC	0.324
CGACAGAC	-0.166
